Measured values taken from PubChem BioAssay AID1794842 (National Center for Advancing Translational Sciences (NCATS), 2023).
Among all 2,800 compounds or so, fewer than 10 were called active. The call rests on the fitted dose curve; in most records, active means well fitted curve in the direction sought with a large enough effect; inconclusive means small, poorly fitted or top-dose-only effect, or another doubt; inactive means no such curve, though single readings can be large or run the other way. Some of the results follow.

The compounds below were run against Metallo-beta-lactamase type 2 (Klebsiella pneumoniae) (UniProt C7C422) (assay: qHTS to identify inhibitors of the New Delhi Metallo-beta-lactamase (NDM): Meropenem screen against the machine-based learning selections.). Conditions: Purified NDM-1, meropenem hydrolysis, absorbance 300 nm; at 38.4 µM (top of the series) unless noted.
Chain of UniProt C7C422 (C7C422 whole entry, looked up): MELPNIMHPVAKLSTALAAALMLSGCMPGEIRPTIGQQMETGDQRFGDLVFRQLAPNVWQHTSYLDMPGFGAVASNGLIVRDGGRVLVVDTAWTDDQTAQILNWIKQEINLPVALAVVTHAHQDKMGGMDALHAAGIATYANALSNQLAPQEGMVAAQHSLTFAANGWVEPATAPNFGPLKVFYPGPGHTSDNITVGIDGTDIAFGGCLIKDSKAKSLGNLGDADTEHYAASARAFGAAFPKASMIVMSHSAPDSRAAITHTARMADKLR
In short: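 Hydrolysis by 2 nM NDM-1 was followed by absorbance after >30 min compound preincubation in HEPES pH 7.0 buffer with 1 uM Zn2SO4. For nitrocefin (16.7 uM, 15 min, 485 nm) and meropenem (50 uM, 30 min, 300 nm), each substrate ran on separate plates.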
Further: % of control where 0% means no effect.

| SMILES | activity change, negative = inhibition |
| --- | --- |
| CCn1cnnc1CC1CCN(C(=O)NC)C1 (configuration not stated) | inactive: -0.829% |
| O=C(c1ccc(C2CCCN2)s1)N1CCc2nc[nH]c2C1 (configuration not stated) | inactive: 41.3% |
| COc1ccc(-c2nnc3n2CCN(C(=O)c2ccc(C(F)(F)F)cc2)C3)cc1 | inactive: -1.65% |
| CC1(C)[C@H](Cc2cc(CN3CCN(c4ccccc4)CC3)on2)C[C@@H]1NC(=O)Nc1ccc(F)cc1 | inactive: -0.163% |
| O=C(C1CCCC1)N1CC2CC(C1)[C@H]1CCCC(=O)N1C2 (some centres not stated) | inactive: 18.4% |
| Cn1ccc2c(C(=O)NCCC(N)=O)nc(-c3cccc(CO)c3)cc21 | inactive: 9.01% [at 57.5 µM] |
| COc1ccc(CN2CCOC[C@H]2c2ncc(-c3cccnc3)[nH]2)cc1 | inactive: 6.05% [at 57.5 µM] |
| CN1[C@@H](CCC(=O)NCc2cccnc2)CNC(=O)[C@@H]2[C@H]1CCN2Cc1nc2ccccc2n1C | inactive: 14.4% |
| O=C(c1cnc2c(O)cccn2c1=O)N1CCC2(CC1)OCCCC2O (configuration not stated) | inactive: 37.7% |
| O=C(CCc1cc(=O)[nH]o1)N[C@H](c1ccccn1)C1CC(O)C1 (some centres not stated) | inactive: -1.48% |
| Cc1ccccc1NC(=O)Nc1ccnn1C1CCN(C(=O)[C@@H](N)CO)CC1 | inactive: 31.8% |
| CC[C@H]1CN(C(=O)c2ccc(F)cc2)CC[C@H]1CC(=O)NC1CCCC1 | inactive: -0.765% [at 57.5 µM] |
| Cc1nc2c(NC3CCN(C(=O)c4cnccn4)CC3)cccn2n1 | inactive: 6.5% |
| CCOCCN1C(=O)COC[C@@H]1[C@H](O)c1ccc(NC(=O)c2ccccc2)cc1 | inactive: 1.7% [at 57.5 µM] |
| C[C@@H]1C(=O)O[C@H]2[C@H]1CC[C@@]1(C)Cc3sc(NS(=O)(=O)c4ccc5c(c4)CN(C(=O)C(F)(F)F)CC5)nc3[C@@H](C)[C@H]21 | inactive: -3.52% |
| O=C(c1cc2sccc2[nH]1)N1CCCn2nc(C(O)CO)cc2C1 (configuration not stated) | inactive: 16.9% |
| O=C(O)C[C@@H]1CCN(C(=O)C2CCC2)C[C@@H]1CCN1CCC(n2c(=O)[nH]c3ccccc32)CC1 | inactive: 1.43% |
| COC(=O)N1CCn2c(nnc2-c2ccc(OC)cc2)C1 | inactive: 0.782% [at 57.5 µM] |
| COc1cc(=O)n2c(c1C(=O)NC1CCCCCC1)CCCC2 | inactive: -3.47% |
| COc1ccccc1CN1Cc2[nH]cnc2C[C@H]1c1nc(-c2cccc(C)c2)no1 | inactive: 66.5% [at 57.5 µM] |
| O=C(O)c1cc(-c2ccncc2)cc(S(=O)(=O)N2CCCCCC2)c1 | inactive: 1.09% |
| CN(C)C1CCN(c2nc(-c3ccncc3)nc3c2CNC3)C1 (configuration not stated) | inactive: 15.6% |
| O=C1Cc2c(-c3ccc4ccccc4c3)n[nH]c2CN1CCc1ccncc1 | inactive: 7.56% [at 57.5 µM] |
| COc1ccc(-c2ccc3c(c2)C(=O)N2CC[C@H](NC(=O)c4cccs4)[C@H]2C(=O)N3)c(OC)c1 | inactive: 7.27% |
| Cc1sc2ccn(C)c(=O)c2c1C(=O)NCc1ccc(OC(C)C)cc1 | inactive: 3.58% |
| CC(=O)N1CC[C@H](c2nc3cc(C)ccc3o2)C1 | inactive: -0.0122% [at 76.7 µM] |

| SMILES | activity change, negative = inhibition |
| --- | --- |
| O=C(Cc1c[nH]c2ncc(-c3ccccc3)cc12)NCC1CCOCC1 | inactive: 0.256% [at 57.5 µM] |
| O=C(c1ccc2ncccc2c1)N1CCC2(CC1)Nc1ccccc1NC2=O | inactive: -2.05% |
| Cn1nc(CC2CCN(C(=O)c3cnon3)CC2)n(-c2ccccc2)c1=O | inactive: 1.22% |
| Cc1oc(C(O)c2ccccc2F)nc1C(=O)Nc1ccc(C(N)=O)cc1 (configuration not stated) | inactive: 10.8% [at 57.5 µM] |
| C[C@@H](NC(=O)c1cccn1C)c1onc(-c2ccc(F)cc2)c1C(=O)O | inactive: 14.6% [at 57.5 µM] |
| CC(C)CN(Cc1cccnc1)C1CN(C(=O)CC2CCCCC2)C1 | inactive: 0.143% |
| Cc1cc2ncc(C(=O)N3CCCn4nc(CCC(=O)O)cc4C3)c(=O)n2[nH]1 | inactive: 63.5% |
| CC(C)CS(=O)(=O)N[C@H](C)c1onc(-c2ccc(Cl)cc2)c1C(=O)O | inactive: 4.76% [at 57.5 µM] |
| CN1CCC(N2CCC(O)(c3csc(CN4CCc5ccccc5C4)n3)CC2)CC1 | inactive: -4.47% [at 57.5 µM] |
| Fc1ccc2cnc(N3CCC(N[C@H]4C[C@@H]5OCC[C@H]45)CC3)nc2c1 | inactive: -0.366% |
| Nc1n[nH]c(CNc2cc(-c3ccc(F)cc3)nc3ccnn23)n1 | inactive: 9.82% |
| O=C(Cc1c[nH]c2ncc(-c3cccnc3)cc12)Nc1ccc(F)cc1 | inactive: 2.22% [at 57.5 µM] |
| O=C(NC1CC(=O)N(CCc2cccc(Cl)c2)C1)c1ccsc1 (configuration not stated) | inactive: -1.78% |
| C#CCN(C)Cc1nc(C2(O)CCN(C(=O)NCC=C)CC2)cs1 | inactive: 3.22% [at 57.5 µM] |
| Cc1cc(C)c(CNC(=O)c2nc(-c3ccc(CN(C)C)cc3)cc3[nH]ccc23)c(=O)[nH]1 | inactive: 1.61% [at 57.5 µM] |
| COCCOC1CN(C2CCN(C(=O)c3ccc(OC)cc3)CC2)C12CCCCC2 (configuration not stated) | inactive: -0.797% |
| CN(c1ccccc1)c1ccc2nnc(-c3cc(C(=O)NC4CCC(O)CC4)ccn3)n2n1 (configuration not stated) | inactive: -0.152% |
| COc1ccccc1C(=O)Nc1ccc([C@H]2OCC(=O)N(Cc3cccnc3)[C@@H]2CO)cc1 | inactive: 8.72% |
| CCOCC(=O)N1CCCC(c2cc(N3CCOCC3)nc(C)n2)C1 (configuration not stated) | inactive: 0.366% |
| CN(Cc1cccc(C(F)(F)F)c1)Cc1nc(-c2ccccc2)no1 | inactive: -5.66% |
| O=C(c1cccc(Cl)c1)N1C[C@@H](CO)[C@H](c2ccccn2)C1 | inactive: -2.41% |
| CC(=O)N1CCCC(C(=O)NCCc2csc(-c3ccncc3)n2)C1 (configuration not stated) | inactive: 2.86% |
| C[C@]1(O)CCN(C(=O)CCc2c[nH]c3ccccc23)C[C@@H]1O | inactive: -2.65% |
| O=C(Cc1c[nH]c2ncc(-c3cccc(Cl)c3)cc12)NCc1cccnc1 | inactive: 5.32% [at 57.5 µM] |
| CC1=C[C@@H](CN2CCN(c3cnccn3)CC2)[C@H](C(C)C)C[C@H]1Cc1nnc(-c2cccnc2)o1 | inactive: 15.1% |
| COCCN[C@@H]1C[C@@H]2c3[nH]c4ccccc4c3C[C@@H](C(=O)OC)N2[C@H](c2ccc(C(C)C)cc2)C1 | inactive: 0.489% |

| SMILES | activity change, negative = inhibition |
| --- | --- |
| COc1ccc(CN2C(=O)[C@@H]3C[C@@H](CN3CC3CC3)Oc3ccccc32)cc1 | inactive: -1.86% [at 57.5 µM] |
| CC(C)CCNC1(Cc2cc(CN3CCOCC3)on2)COC1 | inactive: 8.33% [at 57.5 µM] |
| COc1ccc(C(=O)N2CCc3nc(N)nc(N4CCCC4)c3CC2)o1 | inactive: 4.91% |
| Cn1ccnc1CN[C@@H]1CO[C@H](CNC(=O)CC(C)(C)C)[C@H]1O | inactive: 28.5% [at 57.5 µM] |
| N#Cc1cccc(CN2CCOC[C@H]2c2ncc(-c3ccc(C(F)(F)F)cc3)[nH]2)c1 | inactive: 2.14% [at 57.5 µM] |
| Cc1nn2c(c1-c1ccccc1C(N)=O)N(CCCc1ccccc1)CCC2 | inactive: 51.6% [at 57.5 µM] |
| CCOc1ccc(C(=O)NC2CCCN(c3cc(-c4ccc(OC)cc4)[nH]n3)C2)cc1OCC (configuration not stated) | inactive: 2.21% |
| C[C@@]12CO[C@@H](Cc3ccccc3)O[C@@H]1CC[C@]1(C)C2CC[C@@H](O)[C@H]1CC(=O)NCc1cc(F)cc(F)c1 (some centres not stated) | inactive: 0.763% |
| CCc1noc(-c2cccn3c(CNC(=O)Cc4c[nH]c5ccccc45)nnc23)n1 | inactive: 0.399% |
| O=C1Cc2c(-c3ccc4ccccc4c3)n[nH]c2CN1Cc1ccccn1 | inactive: 7.75% [at 57.5 µM] |
| COCCNC(=O)C[C@@H]1C[C@H]2O[C@H](CNCc3cnccc3C(F)(F)F)[C@@H](O)[C@H]2O1 | inactive: 1.44% [at 57.5 µM] |
| CN1CCC(N2CC[C@H](c3nnc(-c4ccc(N(C)C)cc4)o3)C2)CC1 | inactive: 4.8% [at 57.5 µM] |
| COCCOc1ccnc(-c2noc([C@@H]3CCCN3Cc3cccnc3)n2)c1 | inactive: 2.36% [at 57.5 µM] |
| Cc1ccc(C2(O)CCN(C(=O)c3ccccc3-c3nn[nH]n3)CC2)nc1 | inactive: 19.2% |
| Nc1nc(C2CC(O)C2)cc(N2CCC(OCc3ccccn3)CC2)n1 (configuration not stated) | inactive: 3.6e-06% |
| COc1cccc([C@@H]2CCN(Cc3cn[nH]c3C(=O)O)C[C@H]2O)c1 | inactive: 9.53% |
| C#CCN(C)C(=O)c1c(-c2ccc(OC)cc2)noc1[C@H](C)O | inactive: 12.3% [at 57.5 µM] |
| O=C(O)[C@]12CCCN[C@@H]1CCN(Cc1cnc(-c3ccccn3)nc1)C2 | inactive: 23.1% |
| COCCN1C(=O)CCc2cc(NC(=O)c3ccc(C)c(C)c3)ccc21 | inactive: 10.8% |
| COc1ccc(CN(Cc2ccc(OC)cc2)[C@@H]2CO[C@H](CNC(=O)CC(C)(C)C)[C@H]2O)cc1 | inactive: 0.0317% |
| CC(=O)NC[C@@H]1C=C(C)[C@H](CC(=O)N2CCCC2)C[C@H]1C(C)C | inactive: 1.7% [at 57.5 µM] |
| CC1(C)C[C@H](NC(=O)c2ccccc2)[C@@]2(CCC(=O)NCc3cccnc3)CC[C@](C)(O)C[C@@H]12 | inactive: 0.171% |
| O=C1Cc2c(-c3cccc4ccccc34)n[nH]c2CN1CCc1ccncc1 | inactive: 15.1% [at 57.5 µM] |
| CN1C[C@H](C(=O)NCc2ccccc2)C[C@H]1c1cccc(C(F)(F)F)c1 | inactive: -1.01% [at 57.5 µM] |
| CC(C)(O)C#Cc1ccc(C(=O)N2CCC(O)(c3ccccn3)CC2)cc1 | inactive: 0.364% |
